According to the antibiotic and cytotoxicity screens of Wong et al. (2023):
This is one part of the list.

The compounds below were run on HSkMC (human skeletal muscle cells) (assay: cytotoxicity call (relative viability < 0.9)). Settings: 10 µM.
For `COc1ccc(S(=O)(=O)Nc2ccc3c(c2)CC(=O)N([C@H](C)CO)C[C@@H](C)[C@H](CN(C)Cc2ccc(-c4ccccc4)cc2)O3)cc1`, the cytotoxicity call was “active”. In the case of `Cc1ccc(S(=O)(=O)Nc2ccc3c(c2)C(=O)N([C@H](C)CO)C[C@H](C)[C@H](CN(C)C(=O)NC2CCCCC2)OCCCC[C@@H](C)O3)cc1`, the cytotoxicity call is reported as “inactive”. `C[C@@H]1CCCCO[C@@H](CN(C)C(=O)NC2CCCCC2)[C@H](C)CN([C@@H](C)CO)C(=O)c2cc(NC(=O)Nc3ccccc3)ccc2O1` was tested, and the cytotoxicity call was “inactive”. In the case of `C[C@@H]1CN([C@@H](C)CO)C(=O)c2cc(NC(=O)Nc3ccccc3)ccc2O[C@@H]1CN(C)Cc1ccc(C(=O)Nc2ccccc2N)cc1`, the cytotoxicity call is reported as “inactive”. For `C[C@@H]1CN([C@@H](C)CO)C(=O)c2cc(NC(=O)Cc3cn(C)c4ccccc34)ccc2O[C@H]1CN(C)Cc1ccc(C(F)(F)F)cc1`, the cytotoxicity call was “inactive”. With `C[C@@H]1CN([C@@H](C)CO)C(=O)Cc2cc(NC(=O)NC3CCCCC3)ccc2O[C@@H]1CN(C)Cc1ccc(C(=O)Nc2ccccc2N)cc1` the cytotoxicity call was “inactive”. `COc1ccc(CN(C)C[C@@H]2Oc3ccc(NC(=O)CCN4CCOCC4)cc3C(=O)N([C@@H](C)CO)C[C@@H]2C)cc1` was tested, and the cytotoxicity call was “inactive”. `COc1ccccc1C#Cc1ccc2c(c1)O[C@@H](CN(C)Cc1cncnc1)[C@H](C)CN([C@@H](C)CO)S2(=O)=O` was tested, and the cytotoxicity call was “active”. In the case of `OC1(c2ccc(Cl)c(C(F)(F)F)c2)CCN(CCCC(c2ccc(F)cc2)c2ccc(F)cc2)CC1`, the cytotoxicity call is reported as “active”.
